Data taken from PubChem BioAssay AID686978 (National Center for Advancing Translational Sciences (NCATS), 2013).
“And” between values parts separate entries of the source, which are not always exact repeats. Equal entries are not always repeated. Screen size: about 420,000 compounds; about 64,000 (15%) were called active. This list was built around the results that the source calls inconclusive (neither active nor inactive); the mix of calls is not that of the screen. Calls come from the whole dose curve; as a rule, active = well fitted inhibition curve with a large enough effect; inconclusive = small, poorly fitted or top-dose-only effect; inactive = flat fitted curve, though single readings scatter. A potency beside an inconclusive call is a rough fit, not a confirmed value.
% is set by controls: 0 for no effect and ±100 for the full control effect; potency is the fitted concentration of half-maximal effect; tags give direction and shape of the fitted curve.

Assay: qHTS for Inhibitors of human tyrosyl-DNA phosphodiesterase 1 (TDP1): qHTS in cells in absence of CPT; note: nearly all actives have a fitted effect of over 55% in size
Details: DT40 Tdp1-/- hTDP1 cells, no CPT, ATP luminescence, 48 h; activity change, negative = growth inhibition: at 46.2 µM (top of the series) unless noted
Outline: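 Growth kinetics read by CellTiter-Glo luminescence after ≥48 hr at 37 °C. Cells: DT40 Tdp1-/- stably carrying human TDP1, 400 per well, compound exposure in the absence of CPT (DMSO vehicle).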
With O=S(=O)(c1ccc(Cl)cc1)c1nnn2c1nc(NC1CCCC1)c1sccc12 the Potency was inconclusive: 23.1 µM [inhibitor, single point]. In the case of Cc1cccc(C)c1NC(=O)C(c1ccc(C#N)cc1)n1c(=O)c(-c2ccccc2)nc2ccccc21 (configuration not stated), the Potency is reported as inconclusive: 29.1 µM [inhibitor, single point]. With CN(CCOc1ccc(CC2SC(=O)NC2=O)cc1)c1ccccn1 (configuration not stated) the Potency was inconclusive: 26.6 µM [inhibitor, single point]. For COc1ccc(C(=O)Nc2oc(-c3ccccc3)c(-c3ccccc3)c2C#N)cc1, the Potency was inconclusive: 29.1 µM [inhibitor, single point]. With CC1CN(C(=O)c2cc3cc(Br)ccc3[nH]2)CC(C)O1 (configuration not stated) the Potency was inconclusive: 23.1 µM [inhibitor, single point]. In the case of Cc1nc(N)sc1-c1nnc(SCC(=O)Nc2ccccc2C(F)(F)F)n1C, the Potency is reported as “inactive”. For O=C(CNC(=O)c1ccc(Br)o1)NNC(=O)c1ccccc1F, the Potency was “inactive”. For O=C(CSc1nc2c([nH]c3ccccc32)c(=O)n1-c1ccccc1)Nc1ccc2c(c1)OCO2, the Potency was active: 23.1 µM. In the case of COc1ccccc1CNC(=O)CCN1C(=O)c2ccccc2C1=O, the Potency is reported as “inactive”. In the case of Nc1c(C(=O)Nc2ccccc2Br)sc2nc(-c3cccs3)ccc12, the Potency is reported as inconclusive: 25.9 µM [inhibitor, single point]. In the case of COc1ccc(N2CCN(CCCn3c(=S)[nH]c4ccccc4c3=O)CC2)cc1, the Potency is reported as inconclusive: 16.4 µM [inhibitor, partial curve]. For COc1ccc(N2CCN(C(CNS(=O)(=O)c3ccc(OC)c(C)c3)c3ccco3)CC2)cc1 (configuration not stated), the Potency was active: 23.1 µM. With Cc1noc2ncnc(N3CCN(c4cccc(C(F)(F)F)c4)CC3)c12 the Potency was active: 8.2 µM. For COc1ccc(C(=O)NC(=S)Nc2cc3oc4ccccc4c3cc2OC)cc1, the Potency was inconclusive: 20.6 µM [inhibitor, partial curve]. For CC(=O)CSc1nc2c(c(=O)[nH]c(=O)n2C)n1Cc1cccc(Br)c1, the Potency was inconclusive: 13 µM [inhibitor, single point]. For O=C(c1ccncc1)N1CCN(c2cccc(C(F)(F)F)c2)CC1, the Potency was inconclusive: 25.9 µM [inhibitor, single point]. For COc1ccc(C)cc1-n1c(-c2ccc(Cl)cc2)cc2c1CC(C)(C)CC2=O, the Potency was active: 14.6 µM. With c1cc(-c2nnc(-c3ccncc3)o2)ccn1 the Potency was “inactive”. In the case of CCOc1ccc(NC(=O)c2cc([N+](=O)[O-])ccc2N2CCOCC2)cc1, the Potency is reported as inconclusive: 29.1 µM [inhibitor, partial curve, poor fit]. For O=S(=O)(c1ccc(F)c(F)c1)N1CCCc2ccccc21, the Potency was inconclusive: 11.6 µM [inhibitor, partial curve, poor fit]. For COc1ccccc1N(C)S(=O)(=O)c1ccc(C(=O)Nc2nnc(C)s2)cc1, the Potency was “inactive”. For CCN(CCCNC(=O)COc1cc(=O)n(CC)c2ccccc12)Cc1ccccc1, the Potency was inconclusive: 25.9 µM [inhibitor, single point]. In the case of O=C(Nc1ccnc(-c2cccnc2)n1)c1ccccc1Cl, the Potency is reported as inconclusive: 29.1 µM [inhibitor, single point]. For Cn1cc(S(=O)(=O)N2CCN(Cc3ccccc3)CC2)c(=O)n(C)c1=O, the Potency was inconclusive: 5.8 µM [inhibitor, single point]. For Cc1ccc(F)cc1S(=O)(=O)NCc1ccc(N2CCN(C)CC2)cc1, the Potency was inconclusive: 18.4 µM [inhibitor, single point]. In the case of Cc1ccc(Cc2nc3ccccc3nc2SCC(=O)N2CCC(C)CC2)cc1, the Potency is reported as inconclusive: 20.6 µM [inhibitor, single point]. With Cc1occc1C(=O)N/N=C/C1=C(N2CCOCC2)C(=C/c2ccc(Cl)cc2Cl)/CC1 the Potency was active: 7.31 µM. In the case of COc1ccc(C(=O)COc2ccc3c(C)cc(=O)oc3c2)cc1, the Potency is reported as inconclusive: 29.1 µM [inhibitor, single point]. For Cc1ccc(-n2nc(C)c3c(C)c(CCC(=O)NC(C)c4ccccc4)c(C)nc32)cc1 (configuration not stated), the Potency was inconclusive: 29.1 µM [inhibitor, single point] and inconclusive: 1.03 µM [inhibitor, full curve, poor fit]. For Oc1c(Br)cc(Cl)cc1C=Nc1ccccc1Br, the activity change, negative = growth inhibition was inconclusive: -34.3% [inhibitor]. With O=C(O)c1cccc(NC(=O)c2cn(-c3ccccc3)nc2-c2ccc([N+](=O)[O-])cc2)c1 the Potency was “inactive”. For COc1ccc(CCNC(=O)CCc2cn(Cc3ccccc3Cl)c3ccccc23)c(OC)c1, the Potency was active: 16.4 µM. With O=c1c2cc(Br)ccc2[nH]c(=S)n1Cc1ccccc1 the Potency was inconclusive: 29.1 µM [inhibitor, single point]. In the case of Cc1ccc(SCc2cn3cccnc3n2)cc1, the Potency is reported as inconclusive: 20.6 µM [inhibitor, single point]. For COc1cc(/C=C/C(=O)OCC(=O)N2CCN(S(=O)(=O)c3ccc(C)cc3C)CC2)ccc1OC(F)F, the Potency was inconclusive: 18.4 µM [inhibitor, single point]. For COc1ccc(CNC(=O)[C@H](C)N2C(=O)N3CCc4c([nH]c5ccc(OC)cc45)[C@@]3(C)C2=O)cc1, the Potency was inconclusive: 18.4 µM [inhibitor, single point]. For Cn1ccsc1=NC(=O)c1ccc([N+](=O)[O-])o1, the Potency was inconclusive: 29.1 µM [inhibitor, single point]. For COCC1CCCN(Cc2nc(-c3ccc4c(c3)OCO4)no2)C1 (configuration not stated), the Potency was inconclusive: 20.6 µM [inhibitor, single point]. In the case of COc1ccc([C@H]2C[C@@H](n3cc(-c4ccc(F)cc4)nn3)[C@H](O)CN2C(=O)c2cccs2)cc1, the Potency is reported as inconclusive: 14.6 µM [inhibitor, partial curve, poor fit]. For CCOC(=O)C1(CC2CCCCO2)CCN(S(=O)(=O)c2cc(C)cs2)CC1 (configuration not stated), the Potency was inconclusive: 18.4 µM [inhibitor, single point]. With CCn1ncc(C2=NOC(C(=O)NCCc3ccccc3)C2)c1C (configuration not stated) the Potency was “inactive”. In the case of COc1cccc(NC(=O)NCc2ccc(F)cc2)c1, the Potency is reported as “inactive”.
